{"source": "patent US20140248292A1", "about": "“COMPOSITIONS AND METHODS FOR TREATING CANCER” (priority 2013, published 2014)", "key": {"PMCA-1 model": {"tested_on": "PMCA-1 model", "assay": "In vivo tumor growth, orthotopic PMCA-1 model, single i.p. injection", "settings": "day 1"}, "PMCA-3 model": {"tested_on": "PMCA-3 model", "settings": "for Days until sacrifice (mean) / Mucin (g), mean (SD): day 1; for Tumor growth/total number of animals: mouse, in vivo, ip"}, "PMP-1 model": {"tested_on": "PMP-1 model", "assay": "In vivo tumor growth, orthotopic PMP-1 model, single i.p. injection", "settings": "day 1"}, "PMP-2 model": {"tested_on": "PMP-2 model", "assay": "In vivo tumor growth, orthotopic PMP-2 model, single injection", "settings": "day 1"}, "PMCA-2 model": {"tested_on": "PMCA-2 model", "settings": "for Days until sacrifice (mean) / Mucin (g), mean (SD): PMCA-2; for Tumor growth/total number of animals / mean growth index: ip"}, "[1]": {"settings": "single i.p. dose, PMCA-2 model, data not shown"}, "[2]": {"settings": "PMCA-3, single i.p. dose 2.5 mg/kg"}, "[3]": {"settings": "PMCA-3, single i.p. dose 5 mg/kg"}, "[4]": {"settings": "single i.p. dose 2.5 mg/kg, day 1"}, "[5]": {"settings": "single i.p. dose 5 mg/kg, Day 6"}, "[6]": {"settings": "single i.p. dose 5 mg/kg, day 1"}, "[7]": {"settings": "PMCA-3, single i.p. dose 10 mg/kg"}, "[8]": {"settings": "single i.p. dose 10 mg/kg, Day 6"}, "[9]": {"settings": "single i.p. dose 10 mg/kg, day 1"}}, "note": "Values joined by “and” are separate entries in the source; they are usually repeats but may differ in a detail not shown here. Equal entries are not always repeated. Where two headings read alike, the source gives them in different places.", "data": [{"smiles": "CO[C@@]12[C@H](COC(N)=O)C3=C(C(=O)C(C)=C(N)C3=O)N1C[C@@H]1N[C@@H]12", "note": "[Mitomycin C, mitomycin C]", "values": [{"measurement": "Days until sacrifice (mean)", "setting": "PMCA-1 model; single i.p. dose 2.5 mg/kg", "result": 94, "unit": "days"}, {"measurement": "Mucin (g), mean (SD)", "setting": "PMCA-1 model; single i.p. dose 2.5 mg/kg", "result": "1.5 (2.3) g"}, {"measurement": "Tumor growth/total number of animals", "setting": "PMCA-1 model; single i.p. dose 2.5 mg/kg", "result": "3/6"}, {"measurement": "Days until sacrifice (mean)", "setting": "PMCA-1 model; single i.p. dose 5 mg/kg", "result": 98, "unit": "days"}, {"measurement": "Mucin (g), mean (SD)", "setting": "PMCA-1 model; single i.p. dose 5 mg/kg", "result": "1 (2.6) g"}, {"measurement": "Tumor growth/total number of animals", "setting": "PMCA-1 model; single i.p. dose 5 mg/kg", "result": "1/6"}, {"measurement": "efficacy, comparison of doses", "setting": "PMCA-3 model; PMCA-3, 5 mg/kg vs 2.5 mg/kg i.p.", "result": "5 mg/kg was more efficacious than 2.5 mg/kg"}, {"measurement": "Days until sacrifice (mean)", "setting": "PMCA-3 model; [2]", "result": 102, "unit": "days"}, {"measurement": "Mucin (g), mean (SD)", "setting": "PMCA-3 model; [2]", "result": "1.2 (2.4) g"}, {"measurement": "Days until sacrifice (mean)", "setting": "PMCA-3 model; [3]", "result": 112, "unit": "days"}, {"measurement": "Mucin (g), mean (SD)", "setting": "PMCA-3 model; [3]", "result": 0, "unit": "g"}, {"measurement": "Tumor growth/total number of animals", "setting": "PMCA-3 model; 2.5 mg/kg", "result": "4/6"}, {"measurement": "Tumor growth/total number of animals", "setting": "PMCA-3 model; 5 mg/kg", "result": "0/5"}, {"measurement": "Days until sacrifice (mean)", "setting": "PMP-1 model; single i.p. dose 2.5 mg/kg", "result": 110, "unit": "days"}, {"measurement": "Mucin (g), mean (SD)", "setting": "PMP-1 model; single i.p. dose 2.5 mg/kg", "result": 0, "unit": "g"}, {"measurement": "Tumor growth/total number of animals", "setting": "PMP-1 model; single i.p. dose 2.5 mg/kg", "result": "0/6"}, {"measurement": "Days until sacrifice (mean)", "setting": "PMP-1 model; single i.p. dose 5 mg/kg", "result": 100, "unit": "days"}, {"measurement": "Mucin (g), mean (SD)", "setting": "PMP-1 model; single i.p. dose 5 mg/kg", "result": "1.0 (2.3) g"}, {"measurement": "Tumor growth/total number of animals", "setting": "PMP-1 model; single i.p. dose 5 mg/kg", "result": "1/6"}, {"measurement": "Days until sacrifice (mean)", "setting": "PMP-2 model; single i.p. dose 2.5 mg/kg", "result": 111, "unit": "days"}, {"measurement": "Mucin (g), mean (SD)", "setting": "PMP-2 model; single i.p. dose 2.5 mg/kg", "result": "0.7 (0.4) g"}, {"measurement": "Tumor growth/total number of animals", "setting": "PMP-2 model; single i.p. dose 2.5 mg/kg", "result": "0/6"}, {"measurement": "Days until sacrifice (mean)", "setting": "PMP-2 model; single i.p. dose 5 mg/kg", "result": 111, "unit": "days"}, {"measurement": "Mucin (g), mean (SD)", "setting": "PMP-2 model; single i.p. dose 5 mg/kg", "result": "0.5 (0.7) g"}, {"measurement": "Tumor growth/total number of animals", "setting": "PMP-2 model; single i.p. dose 5 mg/kg", "result": "0/6"}, {"measurement": "Days until sacrifice (mean)", "setting": "PMCA-2 model; [4]", "result": 106, "unit": "days"}, {"measurement": "Mucin (g), mean (SD)", "setting": "PMCA-2 model; [4]", "result": "1 (0.6) g"}, {"measurement": "Days until sacrifice (mean)", "setting": "PMCA-2 model; [5]", "result": 106, "unit": "days"}, {"measurement": "Mucin (g), mean (SD)", "setting": "PMCA-2 model; [5]", "result": "0.1 (0.3) g"}, {"measurement": "Days until sacrifice (mean)", "setting": "PMCA-2 model; [6]", "result": 103, "unit": "days"}, {"measurement": "Mucin (g), mean (SD)", "setting": "PMCA-2 model; [6]", "result": "0.02 (0.1) g"}, {"measurement": "tumor growth", "setting": "PMCA-2 model; mouse, in vivo", "result": "inhibited tumor growth, but clearly less effectively than the higher doses"}, {"measurement": "Tumor growth/total number of animals", "setting": "PMCA-2 model; mouse, in vivo, 2.5 mg/kg", "result": "1/3"}, {"measurement": "Tumor growth/total number of animals", "setting": "PMCA-2 model; mouse, in vivo, 5 mg/kg", "result": "1/11 and 1/5"}]}, {"smiles": "O=C1[O][Pt]2([NH][C@@H]3CCCC[C@H]3[NH]2)[O]C1=O", "note": "[Oxaliplatin, oxaliplatin]", "values": [{"measurement": "Days until sacrifice (mean)", "setting": "PMCA-1 model; single i.p. dose 10 mg/kg", "result": 68, "unit": "days"}, {"measurement": "Mucin (g), mean (SD)", "setting": "PMCA-1 model; single i.p. dose 10 mg/kg", "result": "4.7 (2.4) g"}, {"measurement": "Tumor growth/total number of animals", "setting": "PMCA-1 model; single i.p. dose 10 mg/kg", "result": "6/6"}, {"measurement": "Days until sacrifice (mean)", "setting": "PMCA-3 model; [7]", "result": 63, "unit": "days"}, {"measurement": "Mucin (g), mean (SD)", "setting": "PMCA-3 model; [7]", "result": "5.3 (1.2) g"}, {"measurement": "Tumor growth/total number of animals", "setting": "PMCA-3 model; 10 mg/kg", "result": "6/6"}, {"measurement": "Days until sacrifice (mean)", "setting": "PMP-1 model; single i.p. dose 10 mg/kg", "result": 68, "unit": "days"}, {"measurement": "Mucin (g), mean (SD)", "setting": "PMP-1 model; single i.p. dose 10 mg/kg", "result": "4.7 (0.7) g"}, {"measurement": "Tumor growth/total number of animals", "setting": "PMP-1 model; single i.p. dose 10 mg/kg", "result": "6/6"}, {"measurement": "Days until sacrifice (mean)", "setting": "PMP-2 model; single i.p. dose 10 mg/kg", "result": 74, "unit": "days"}, {"measurement": "Mucin (g), mean (SD)", "setting": "PMP-2 model; single i.p. dose 10 mg/kg", "result": "4.3 (2.3) g"}, {"measurement": "Tumor growth/total number of animals", "setting": "PMP-2 model; single i.p. dose 10 mg/kg", "result": "5/6"}, {"measurement": "Days until sacrifice (mean)", "setting": "PMCA-2 model; [6]", "result": 44, "unit": "days"}, {"measurement": "Mucin (g), mean (SD)", "setting": "PMCA-2 model; [6]", "result": "4.9 (0.8) g"}, {"measurement": "Days until sacrifice (mean)", "setting": "PMCA-2 model; [8]", "result": 74, "unit": "days"}, {"measurement": "Mucin (g), mean (SD)", "setting": "PMCA-2 model; [8]", "result": "5.8 (1.6) g"}, {"measurement": "Days until sacrifice (mean)", "setting": "PMCA-2 model; [9]", "result": 76, "unit": "days"}, {"measurement": "Mucin (g), mean (SD)", "setting": "PMCA-2 model; [9]", "result": "4.5 (1.4) g"}, {"measurement": "Tumor growth/total number of animals", "setting": "PMCA-2 model; mouse, in vivo, 5 mg/kg", "result": "6/6"}, {"measurement": "mean growth index", "setting": "PMCA-2 model; mouse, in vivo, 5 mg/kg", "result": "equal to that of untreated animals"}, {"measurement": "Tumor growth/total number of animals", "setting": "PMCA-2 model; mouse, in vivo, 10 mg/kg", "result": "10/10 and 4/4"}, {"measurement": "mean growth index", "setting": "PMCA-2 model; mouse, in vivo, 10 mg/kg", "result": 7.0}, {"measurement": "highest tolerated dose", "setting": "[1]", "result": 10, "unit": "mg/kg"}]}]}
